According to PubChem BioAssay AID686979 (National Center for Advancing Translational Sciences (NCATS), 2013):
Where “and” joins values, the source holds several entries; their conditions need not be identical. Equal values may be shown once. Hit rate of the full screen: of about 420,000 compounds, about 50,000 (12%) were called active. Inconclusive results, whose numbers are uncertain, are shown with a selection of clear calls. The call rests on the fitted dose curve; in most records, active means well fitted inhibition curve with a large enough effect; inconclusive means small, poorly fitted or top-dose-only effect; inactive means flat fitted curve, though single readings scatter. Where the call is inconclusive, the potency comes from a doubtful curve fit.

experiment: qHTS for Inhibitors of human tyrosyl-DNA phosphodiesterase 1 (TDP1): qHTS in cells in presence of CPT; settings: chicken DT40 Tdp1-/-;hTDP1 cells + 20 nM CPT, ATP luminescence, 48 h; activity change, negative = growth inhibition: at 46.2 µM (top of the series) unless noted; further: nearly all actives have a fitted effect of over 55% in size
Outline: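 Chicken DT40 Tdp1-/- cells stably complemented with human TDP1 were seeded at 400 cells/well in medium containing 20 nM camptothecin, exposed to pin-transferred compounds, and grown at 37 °C for at least 48 hr. Viability was read as ATP luminescence.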
On the % scale 0 is the no-effect control and ±100 the full control effect; potency means the concentration at half of the fitted maximal effect; tags describe the fitted curve by direction and shape.

Row | SMILES | Potency | activity change, negative = growth inhibition
1 | C#Cc1ccc(CN2CCN(CCc3ccccc3)C(CCO)C2)cc1 (centres undefined) | inactive | –
2 | CC(=O)Nc1nonc1NC(=O)c1ccc(C(C)(C)C)cc1 | inconclusive: 29.1 µM [inhibitor, single point] | –
3 | COC(=O)c1ccccc1NC(=O)CN(c1ccc(Cl)cc1)S(=O)(=O)c1ccc(OC)cc1 | active: 20.6 µM | –
4 | Cc1ccc(SCC(=O)Nc2nnc(-c3ccco3)o2)cc1 | inactive | –
5 | O=C(C1CCC(CNS(=O)(=O)c2cccs2)CC1)N1CCN(c2ccc(Cl)cc2)CC1 (centres undefined) | active: 10.3 µM and active: 6.51 µM | –
6 | Cc1cc(N=Nc2c(O)c3ccccc3[nH]c2=O)ccc1N=Nc1ccc(C(=O)N(C)C)cc1 | active: 10.3 µM | –
7 | CC(C)NC(=O)c1onc(CSc2ccc(F)c(F)c2)c1C(=O)NC(C)C | inconclusive: 16.4 µM [inhibitor, single point] | –
8 | O=C(NCCc1ccccc1)C1CCC(Cn2c(=O)c3ccccc3n(Cc3cccc(Cl)c3)c2=O)CC1 (centres undefined) | inconclusive: 8.2 µM [inhibitor, partial curve] | –
9 | O=C(NC1CCN(C(=O)Nc2ccccc2Cl)CC1)c1ccccc1 | inconclusive: 16.4 µM [inhibitor, single point] | –
10 | CCOC(=O)[C@]12CCC=C1N(Cc1cccc3ccccc13)C(=O)[C@H](CC(=O)N1CCCCC1)C2 | inconclusive: 29.1 µM [inhibitor, single point] | –
11 | Cc1cc2ccccc2c(=O)n1CC(=O)Nc1ccc2c(c1)OCCO2 | inactive | –
12 | Cc1ccsc1/C=C1\SC(N2CC(C)OC(C)C2)=NC1=O (centres undefined) | inconclusive: 29.1 µM [inhibitor, single point] | –
13 | COCCN(C(=O)C1=COCCO1)c1c(N)n(CC(C)C)c(=O)[nH]c1=O | inactive | –
14 | CC(=O)Nc1ccc(CN(C)c2c(C)nc3ccc(C(=O)N4CCN(C(=O)c5ccco5)CC4)cn23)cc1 | inactive | –
15 | O=C(NC1CCC(O)CC1)c1cc(-c2ccco2)nc2ccccc12 (centres undefined) | inconclusive: 23.1 µM [inhibitor, partial curve, poor fit] | –
16 | COc1ccc(C(=O)CSc2nnc(-c3ccco3)c(-c3ccco3)n2)cc1 | inconclusive: 16.4 µM [inhibitor, partial curve] | –
17 | CCn1c(SCC(=O)c2c[nH]c3ccccc23)nnc1-c1cccs1 | inconclusive: 10.3 µM [inhibitor, partial curve] | –
18 | O=S(=O)(NCc1ccccc1Br)c1ccccc1Br | inactive and inconclusive: 35.5 µM [inhibitor, single point] | –
19 | O=C(CCc1ccc(O)c(O)c1)N/N=C/c1ccc2c(c1)OCO2 | inconclusive: 23.1 µM [inhibitor, single point] | –
20 | CN(C)CCCN(Cc1ccccc1)C(=S)Nc1ccc(SC(F)F)cc1 | active: 18.4 µM | –
21 | CCOC(=O)CNC(=O)CSc1nnc(-c2ccccc2)c(-c2ccccc2)n1 | inactive | –
22 | CC(C)(C)c1ccc(OCCC(=O)Nc2cccc(S(=O)(=O)N3CCCC3)c2)cc1 | inconclusive: 18.4 µM [inhibitor, single point] | –
23 | O=C1C=CC(=O)C(C2=C3C(=O)N(CCc4ccccc4)CC(=O)N3CCC2)=C1 | active: 1.3 µM | –

Row | SMILES | Potency | activity change, negative = growth inhibition
24 | CNS(=O)(=O)c1ccc(CNC[C@H]2O[C@@H](n3ccc(N)nc3=O)[C@H](O)[C@@H]2O)cc1 | inactive | –
25 | COC(=O)c1c(NC(=O)c2ccccc2)sc(C(=O)c2ccccc2)c1C | active: 16.4 µM | –
26 | CCOc1ccc(OCC)c(NC(=O)C2CCN(S(=O)(=O)c3cccnc3)CC2)c1 | inactive | –
27 | CCN(c1ccccc1)S(=O)(=O)c1csc(C(N)=O)c1 | inconclusive: 14.6 µM [inhibitor, partial curve, poor fit] | –
28 | CC(=O)Nc1ccccc1/C=C/c1ccc2c(C)cc(C)c(O)c2n1 | inconclusive: 29.1 µM [inhibitor, single point] | –
29 | Cc1cccc(C)c1OCc1cc(C(=O)N2CC3C[C@@H]4CC2C[C@H](C3)C4)no1 | inconclusive: 29.1 µM [inhibitor, single point] | –
30 | COc1ccc(N2CCN(c3ncnc4onc(C)c34)CC2)cc1 | active: 20.6 µM | –
31 | O=C(NC1CCCCC1)c1ccc(-n2cnnn2)cc1 | inconclusive: 29.1 µM [inhibitor, single point] | –
32 | COc1ccc(C(C)NC(=O)c2ccccc2)cc1 (centres undefined) | inactive | –
33 | O=C(Nc1cc(-c2ccc(F)c(F)c2)no1)c1ccccc1F | inactive | –
34 | CCOc1ccccc1N1CCN(C(=O)C(Sc2ccccc2)c2ccccc2)CC1 (centres undefined) | inconclusive: 29.1 µM [inhibitor, single point] | –
35 | Cc1cccc(N2CCN(C(=O)C3CCCN(C(=O)c4cc5sccc5n4C)C3)CC2)c1C (centres undefined) | active: 23.1 µM | –
36 | CC1(C)C[C@@H](O)CC2(C1)C[C@]1(C)CC(O)[C@H]2C(C)(C)C1 (some centres undefined) | inconclusive: 20.6 µM [inhibitor, single point] | –
37 | COc1cccc(N2CCN(S(=O)(=O)c3ccc4c(c3)NC(=O)CS4)CC2)c1 | inactive | –
38 | Cc1ccc(Cl)cc1NC(=O)N(C)CCO | inactive | –
39 | COCCCNC(=O)C[C@H]1C[C@H](C(=O)N2CCCCC2)[C@@]2(C)c3[nH]c4ccc(Cl)cc4c3CCN2C1=O | active: 20.6 µM | –
40 | COc1ccccc1-c1oc2ccccc2c1-c1ccc2cc[nH]c2c1 | inconclusive: 25.9 µM [inhibitor, partial curve] | –
41 | CC(=O)Nc1sc2c(c1C(c1cccc(F)c1)N1CCN(CCO)CC1)CCCC2 (centres undefined) | active: 23.1 µM | –
42 | COc1cc(C(=O)NCC(c2ccco2)N2CCCC2)ccc1OCc1c(C)noc1C (centres undefined) | inactive | –
43 | O=c1c2c(C(F)(F)F)cc(C(F)(F)F)nc2[nH]n1-c1ccccc1 | active: 14.1 µM | –
44 | COc1ccc(NC(=O)C(=O)c2cc(C)n(-c3ccc(C)cc3)c2C)cc1Cl | inconclusive: 4.61 µM [inhibitor, single point] | –
45 | COCCn1c(SCC(=O)c2ccccc2)nc2c(c1=O)SCC2 | – | inconclusive: -30.6% [inhibitor]
46 | Cn1c(CN2CCOCC2)nc2cc(NC(=O)COc3ccc([N+](=O)[O-])cc3)ccc21 | inconclusive: 29.1 µM [inhibitor, single point] | –

Row | SMILES | Potency | activity change, negative = growth inhibition
47 | O=C(Cn1ccccc1=O)Nc1ccc(Cl)c(S(=O)(=O)N2CCCCC2)c1 | inconclusive: 29.1 µM [inhibitor, single point] | –
48 | COc1ccc(C(CNC(=O)c2ccc(S(=O)(=O)N3CCCC3)cc2)N(C)C)cc1OC (centres undefined) | inconclusive: 29.1 µM [inhibitor, single point] | –
49 | CCN1C(=O)[C@@H]2[C@@H](c3ccc(-c4cc(C(C)=O)cs4)cc3)N3CCC[C@@]3(C(=O)OC)[C@@H]2C1=O | inconclusive: 29.1 µM [inhibitor, single point] | –
50 | Cc1ccc(C(=O)/C=C/Nc2ccc([N+](=O)[O-])cc2Br)cc1 | inconclusive: 29.1 µM [inhibitor, single point] | –
51 | Cc1cccc(CNc2cc(-c3cccc(NS(C)(=O)=O)c3)ncn2)c1 | inconclusive: 16.4 µM [inhibitor, single point] | –
52 | NC(c1csc(NC(=O)Nc2cccc(C(F)(F)F)c2)n1)C1CCCCC1 (centres undefined) | active: 20.6 µM | –
53 | O=C1CC2(CCN(C(=O)COc3ccc(Cl)cc3)CC2)Oc2ccccc21 | inconclusive: 25.9 µM [inhibitor, single point] | –
54 | CCC1CN(C(=O)N2CCC(C(=O)NCc3ccccc3F)CC2)c2ccccc2O1 (centres undefined) | inconclusive: 16.4 µM [inhibitor, single point] | –
55 | COc1ccccc1C(=O)NCCNC(=O)c1ccc(C)nc1 | inactive | –
56 | CN1C(=O)N(CC(=O)Nc2ccc(C(F)(F)F)cc2)C(=O)C12CCCCC2 | inconclusive: 20.6 µM [inhibitor, single point] | –
57 | O=C(Nc1ccc(C(F)(F)F)cc1)C1(c2cccs2)CCOCC1 | inconclusive: 20.6 µM [inhibitor, single point] | –
58 | CCCOC(=O)c1cccc(Nc2nc(C(=O)OCC)nc3ccccc23)c1 | active: 16.4 µM | –
59 | CC(=O)c1ccc(Nc2nc(-c3ccccc3)nc3ccccc23)cc1 | inconclusive: 25.9 µM [inhibitor, single point] | –
60 | ICC[n+]1csc2ccccc21 | inconclusive: 11.2 µM [inhibitor, partial curve] | –
61 | Cc1c(Cc2ccc3c(c2)OCO3)sc(NC(=O)c2cccc3ccccc23)c1C(N)=O | inconclusive: 18.4 µM [inhibitor, single point] | –
62 | CN(C)C(=O)CSc1nnc(CCCCCNC(=O)OC(C)(C)C)o1 | – | inconclusive: -6.56% [inhibitor]
63 | Cn1c(NCCc2ccncc2)nc2cc(-c3cccc(C(F)(F)F)c3)sc2c1=O | inconclusive: 29.1 µM [inhibitor, single point] | –
64 | C[C@H]1CN([C@@H](C)CO)C(=O)c2cc(Br)cnc2O[C@H]1CN(C)C(=O)c1ccc2c(c1)OCO2 | inactive | –
65 | COC[C@H](NS(=O)(=O)c1ccc(Br)cc1F)[C@@H](O)c1ccccc1 | inconclusive: 14.6 µM [inhibitor, single point] | –
66 | Cc1cccc(NC(=S)N/N=C/c2cccn2Cc2ccc(F)cc2)c1 | inconclusive: 25.9 µM [inhibitor, single point] | –
67 | c1ccc(CNc2ncncc2-c2ccc3c(c2)OCO3)cc1 | inconclusive: 23.1 µM [inhibitor, single point] | –
68 | CCCCCCn1c(=O)n2n(c1=O)C[C@]1(OC(=O)Nc3cccs3)CN(S(=O)(=O)c3ccc(C)cc3)C[C@]1(O)C2 | active: 20.6 µM | –
69 | Cc1cc(C(C)(C)C)cc(S(=O)(=O)Nc2cccc(C(=O)O)c2)c1C | inactive | –
